Source: publication PMC4336329 (PLoS ONE, 2015)
The campaign covered roughly 310,000 compounds. About 2,200 (0.71%) showed an effect of 50% or more. The effect is printed as a negative number. Some of the results follow.

target: human ether-à-go-go-related gene (hERG) potassium channel (human, UniProt Q12809); test: primary screen, population patch clamp on CHO cells stably expressing hERG
Sequence (Q12809 whole entry, looked up): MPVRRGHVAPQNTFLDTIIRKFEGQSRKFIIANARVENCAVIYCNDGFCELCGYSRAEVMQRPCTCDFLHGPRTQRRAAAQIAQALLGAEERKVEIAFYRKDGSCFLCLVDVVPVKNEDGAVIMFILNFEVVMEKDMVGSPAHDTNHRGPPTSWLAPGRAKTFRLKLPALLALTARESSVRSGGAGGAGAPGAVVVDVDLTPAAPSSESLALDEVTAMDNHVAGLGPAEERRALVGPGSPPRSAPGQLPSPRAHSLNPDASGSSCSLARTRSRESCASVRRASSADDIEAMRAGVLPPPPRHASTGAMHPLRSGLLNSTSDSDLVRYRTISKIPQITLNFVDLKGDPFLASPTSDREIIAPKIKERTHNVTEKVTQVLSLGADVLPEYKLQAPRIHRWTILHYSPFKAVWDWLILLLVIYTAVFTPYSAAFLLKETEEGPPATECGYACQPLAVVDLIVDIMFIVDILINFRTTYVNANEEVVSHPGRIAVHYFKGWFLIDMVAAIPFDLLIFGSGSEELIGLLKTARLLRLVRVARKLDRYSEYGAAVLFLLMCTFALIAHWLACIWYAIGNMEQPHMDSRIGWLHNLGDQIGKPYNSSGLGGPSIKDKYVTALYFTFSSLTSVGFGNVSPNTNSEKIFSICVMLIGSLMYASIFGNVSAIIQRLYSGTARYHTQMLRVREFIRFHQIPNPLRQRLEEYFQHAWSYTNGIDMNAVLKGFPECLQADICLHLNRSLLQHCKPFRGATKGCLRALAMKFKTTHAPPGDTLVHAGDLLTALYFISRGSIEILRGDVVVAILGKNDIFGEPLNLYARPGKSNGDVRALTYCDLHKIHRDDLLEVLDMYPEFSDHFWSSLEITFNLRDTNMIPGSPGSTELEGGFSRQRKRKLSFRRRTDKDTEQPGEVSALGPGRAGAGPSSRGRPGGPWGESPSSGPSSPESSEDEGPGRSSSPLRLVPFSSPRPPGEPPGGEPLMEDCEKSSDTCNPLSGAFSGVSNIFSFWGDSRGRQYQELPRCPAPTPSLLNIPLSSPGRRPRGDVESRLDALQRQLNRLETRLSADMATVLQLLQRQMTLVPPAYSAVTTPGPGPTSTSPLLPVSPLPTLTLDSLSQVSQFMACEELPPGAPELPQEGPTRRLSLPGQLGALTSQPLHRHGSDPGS

SMILES | hERG current change (%, negative = inhibition) at 1uM [%]
CCCNC(=O)C1(CC2CC(c3ccccc3)=NO2)CCN(C(=O)CCCCCBr)CC1 (centres unmarked) | -5.35
O=C(CCSCCc1ccccn1)Nc1c(F)c(F)c(F)c(F)c1F | 8.61
N#CC1=C(N)Oc2c(ccc3ccccc23)C1c1ccsc1 (centres unmarked) | 10.7
COc1ccc(NC(=O)Cc2nnc(SCC(=O)Nc3cc(C)ccc3OC)n2C)cc1 | 8.46
NC1=NC(=O)C2(COC(c3ccncc3)OC2)S1 (centres unmarked) | 17.1
CCOC(=O)C1(CCCc2ccccc2)CCN(C(=O)c2ocnc2C)CC1 | -14.9
COc1ccc(OCc2ccc(C(=O)N3CCOCC3)cc2)cc1 | 11.3
O=C(CSc1ccc2nnc(CCNC(=O)c3ccccc3)n2n1)Nc1ccc(F)cc1F | 9.08
O=C1NC(=S)N/C1=C/c1cc([N+](=O)[O-])ccc1O | 13.2
COc1ccc(C(C)=O)cc1CSc1nnc(-c2ccncc2)n1C | 25.1
CCOC(=O)c1ccccc1NC(=O)c1cn(-c2ccc(C)c(C)c2)c(=O)c2ccccc12 | -6.46
CCN(CC(=O)Nc1ccc(N2CCOCC2)cc1)C(=O)COc1ccccc1OC | 10.8
Cc1[nH]c2ccccc2c1/C=N/NC(=O)c1cc(-c2ccccc2)n[nH]1 | 15.9
COc1ccc(OCCCC(=O)N2CCN(S(=O)(=O)c3cccc(F)c3)CC2)cc1 | -1.89
CCn1ncc(Br)c1C(=O)NC1CCCCCCC1 | 10.7
CCN(CC)C(=O)C1CC(=O)OC1(C)C (centres unmarked) | 5.73
O=C(NCC1CCCO1)c1nn2c(C(F)(F)F)cc(-c3cc(Br)cs3)nc2c1Br (centres unmarked) | 8.99
COC(=O)c1ccc(CN(Cc2ccc(C(=O)OC)o2)C(C)(C)C)o1.Cl | -10.3
COc1ccc(/C(O)=C2/C(=O)C(=O)N(CCCC(=O)O)C2c2ccc(OC)c(OC)c2)cc1 (centres unmarked) | 12.8

SMILES | hERG current change (%, negative = inhibition) at 1uM [%]
COc1ccc(OC)c(NC(=O)c2cnn(-c3ccccc3Cl)c2NC(=O)c2ccco2)c1 | -6.26
CCC(=O)NCCc1cc2cc(C)c(C)cc2[nH]c1=O | 9
Cc1ccc(NC(=O)C2C3/C=C\CCCCC32)cc1C (centres unmarked) | 13
N#CC(C#N)=Cc1cnc(N2CCN(c3ccccc3)CC2)s1 | 18.9
CC/C(C)=C1\SC(N2CCN(c3cccc(C(F)(F)F)c3)CC2)=NC1=O | -6.41
N#Cc1c(NC(=O)CSc2nc3ccccc3c(=O)n2Cc2ccco2)sc2c1CCCC2 | 15.4
COc1ccccc1-c1noc(-c2ccccc2C(=O)N2CCOCC2)n1 | 1.87
O=S(=O)(NCCc1nnc2ccc(SCc3cccnc3)nn12)c1ccccc1 | 9.44
Cc1ccc(OCC(=O)N2CCN(C)CC2)c(Br)c1 | -0.058
Cc1nn(Cc2ccccc2)c(C)c1C(=O)N1CCN(CC(=O)Nc2ccc(F)cc2)CC1 | -9.32
Cc1ccc(NC(=O)CNC(=O)c2ccc(Br)o2)nc1 | 7.17
O=C1NC(c2ccccc2)(C(F)(F)F)SC2=NCCCN12 (centres unmarked) | 13.1
COc1ccc(NC(=O)C2CCN(S(C)(=O)=O)CC2)c(OC)c1 | 16.2
O=C(COC(=O)c1ccccc1C(=O)c1ccccc1)NCc1ccc(F)cc1 | 3.61
COc1ccc(CC(=O)Nc2ccc(S(=O)(=O)NCC3CCCO3)cc2)cc1 (centres unmarked) | 12.7
CCc1ccc(C2=NN(C(=O)OC)C(O)(C(F)(F)F)C2)cc1 (centres unmarked) | 0.622
COc1ccc(C(=O)NCCS(=O)(=O)NC2CCCC2)cc1 | 13.9
CCn1cc(C(=O)N2CCCC2)c(=O)c2cc(S(=O)(=O)N3CCC(C)CC3)ccc21 | 9.42
O=C1CSC(=S)N1c1ccc(Cl)c(Cl)c1 | 13.7

SMILES | hERG current change (%, negative = inhibition) at 1uM [%]
Cn1c(=O)c2c(ncn2CC(=O)OCC(=O)NCc2ccc(Cl)cc2)n(C)c1=O | 1.07
O=C(O)CCCN1C(=O)c2ccc(Oc3cccc([N+](=O)[O-])c3)cc2C1=O | 18.2
O=C(NCc1ccccc1)c1c(O)c2ccccc2[nH]c1=O | 17.1
CCOC(=O)c1ccccc1NC(=O)COC(=O)c1c(CC)noc1C | 7.65
CCCCNC(=S)N(Cc1c(C)noc1C)c1ccccc1 | 5.46
Nc1c(Cl)ncnc1N/N=C/c1ccc(O)cc1 | 14.9
COc1ccc(CNC(=O)COC(=O)/C=C/c2ccc(Cl)cc2)cc1 | 10.7
COc1ccc(C(=O)Nc2c(N)nc(SCC(=O)NCC3CCCO3)[nH]c2=O)cc1 (centres unmarked) | 11.4
O=C(c1ccccc1NS(=O)(=O)c1ccc(Br)s1)N1CCCC1 | -1.68
CCOC(=O)C1=C(CC)OC(N)=C(C#N)C1c1ccc(F)cc1F (centres unmarked) | 9.97
Cn1c(NC(=O)c2ccccc2F)cc(=O)n(C)c1=O | 6.23
CCOC(=O)c1nnn(CC(=O)Nc2ccccc2)c1C(=O)OCC | 15.2
COc1ccccc1OCc1ccc(C(=O)Nc2ccccc2)cc1 | 6.59
O=C(Nc1ccc(Nc2ccccc2)cc1)c1ccc(Cl)cc1 | 0.661
CC(NC(=O)c1ccccc1)c1ccc(F)cc1 (centres unmarked) | 12.2
O=C1CC(SC(=Nc2ccccc2)Nc2ccccc2)C(=O)N1c1ccc(Cl)c(Cl)c1 (centres unmarked) | 7
Cc1cc2c(NC(=O)CC(C)(C)CC(=O)O)cccc2nn1 | 9.06
O=C(NCCc1c[nH]c2ccccc12)C(=O)Nc1cc2c3c(c1)CC(=O)N3CCC2 | 7.54
